Measured values reported in a collection of fitness landscapes (doi:10.1126/science.1257360).
The other results are listed elsewhere or left out.

B1: PhoQ; a variant is named by its letters at X, in order, P23837 (parent)
chain: MKKLLRLFFPLSLRVRFLLATAAVVLVLSLAYGMVALIGYSVSFDKTTFRLLRGESNLFYTLAKWENNKLHVELPENIDKQSPTMTLIYDENGQLLWAQRDVPWLMKMIQPDWLKSNGFHEIEADVNDTSLLLSGDHSIQQQLQEVREDDDDAEMTHSVAVNVYPATSRMPKLTIVVVDTIPVELKSSYMVWSWFIYVLSANLLLVIPLLWVAAWWSLRPIEALAKEVRELEEHNRELLNPATTRELTSLVRNLNRLLKSERERYDKYRTTLTDLTHSLKTPLXXLQXXLRSLRSEKMSVSDAEPVMLEQISRISQQIGYYLHRASMRGGTLLSRELHPVAPLLDNLTSALNKVYQRKGVNISLDISPEISFVGEQNDFVEVMGNVLDNACKYCLEFVEISARQTDEHLYIVVEDDGPGIPLSKREVIFDRGQRVDTLRPGQGVGLAVAREITEQYEGKIVAGESMLGGARMEVIFGRQHSAPKDE

Variants of: B1
Assay: enrichment ratio after two sorts for PhoP signalling (ratio (wild type AVST 3.29)); higher = more functional
Details: with PhoP (E. coli)

DYKI and DMGQ cannot be ordered by enrichment ratio: ≤ 0.25 for the first, ≤ 0.25 for the second.

RLWD and EPGH cannot be ordered by enrichment ratio: ≤ 0.25 for the first, ≤ 0.25 for the second.

VWGG and IFWQ cannot be ordered by enrichment ratio: ≤ 0.25 for the first, ≤ 0.25 for the second.

Going from MHIF to QKTR, the enrichment ratio rises from ≤ 0.25 to 5.2.

HAFV and EERG cannot be ordered by enrichment ratio: ≤ 0.25 for the first, ≤ 0.25 for the second.

VSGP and DAKW cannot be ordered by enrichment ratio: ≤ 0.25 for the first, ≤ 0.25 for the second.

ELVL and QVMY cannot be ordered by enrichment ratio: ≤ 0.25 for the first, ≤ 0.25 for the second.

KKFQ and PLID cannot be ordered by enrichment ratio: ≤ 0.25 for the first, ≤ 0.25 for the second.

DYFA and VEHN cannot be ordered by enrichment ratio: ≤ 0.25 for the first, ≤ 0.25 for the second.

INGT and TRFC cannot be ordered by enrichment ratio: ≤ 0.25 for the first, ≤ 0.25 for the second.

Compared with TRLR, QTSS is higher in enrichment ratio: ≤ 0.25 for the first, 3.29 for the second.

DLEI and TWPD cannot be ordered by enrichment ratio: ≤ 0.25 for the first, ≤ 0.25 for the second.

First: SKFD
Second: TLGG
The enrichment ratio of the first is lower: ≤ 0.25 for the first, 7.45 for the second.

RGHV and MCKQ cannot be ordered by enrichment ratio: ≤ 0.25 for the first, ≤ 0.25 for the second.

Compared with TGCT, HYCW is lower in enrichment ratio: 1.82 for the first, ≤ 0.25 for the second.

WATR and LHWV cannot be ordered by enrichment ratio: ≤ 0.25 for the first, ≤ 0.25 for the second.

RNKG and DLTN cannot be ordered by enrichment ratio: ≤ 0.25 for the first, ≤ 0.25 for the second.

GYVW and EGND cannot be ordered by enrichment ratio: ≤ 0.25 for the first, ≤ 0.25 for the second.

FPEW and PLGG cannot be ordered by enrichment ratio: ≤ 0.25 for the first, ≤ 0.25 for the second.

GKPL and RQEI cannot be ordered by enrichment ratio: ≤ 0.25 for the first, ≤ 0.25 for the second.

MAVN and NSCE cannot be ordered by enrichment ratio: ≤ 0.25 for the first, ≤ 0.25 for the second.

Going from NFFQ to AINK, the enrichment ratio rises from ≤ 0.25 to 4.66.

KAPP and RVNA cannot be ordered by enrichment ratio: ≤ 0.25 for the first, ≤ 0.25 for the second.

HFTL and FSMP cannot be ordered by enrichment ratio: ≤ 0.25 for the first, ≤ 0.25 for the second.

DHQG and TTIM cannot be ordered by enrichment ratio: ≤ 0.25 for the first, ≤ 0.25 for the second.

IYWD and YPPT cannot be ordered by enrichment ratio: ≤ 0.25 for the first, ≤ 0.25 for the second.

Going from KDVS to MGAT, the enrichment ratio rises from ≤ 0.25 to 18.8.

QHPC and IEKL cannot be ordered by enrichment ratio: ≤ 0.25 for the first, ≤ 0.25 for the second.

KNFI and FFYF cannot be ordered by enrichment ratio: ≤ 0.25 for the first, ≤ 0.25 for the second.

WHCR and NWQT cannot be ordered by enrichment ratio: ≤ 0.25 for the first, ≤ 0.25 for the second.

First: SYVI
Second: IDWN
The enrichment ratio of the first is higher: 0.418 for the first, ≤ 0.25 for the second.

LESH and HEIE cannot be ordered by enrichment ratio: ≤ 0.25 for the first, ≤ 0.25 for the second.

LAGR and KNDY cannot be ordered by enrichment ratio: ≤ 0.25 for the first, ≤ 0.25 for the second.

LVSE and EANH cannot be ordered by enrichment ratio: ≤ 0.25 for the first, ≤ 0.25 for the second.

Going from SIGI to YCLP, the enrichment ratio falls from 10.5 to ≤ 0.25.

QFPF and QKVP cannot be ordered by enrichment ratio: ≤ 0.25 for the first, ≤ 0.25 for the second.

DLIA and PCKC cannot be ordered by enrichment ratio: ≤ 0.25 for the first, ≤ 0.25 for the second.

RPIK and GIFF cannot be ordered by enrichment ratio: ≤ 0.25 for the first, ≤ 0.25 for the second.

APFS and NMKI cannot be ordered by enrichment ratio: ≤ 0.25 for the first, ≤ 0.25 for the second.

PQNQ and QGIK cannot be ordered by enrichment ratio: ≤ 0.25 for the first, ≤ 0.25 for the second.

MSRE and MVTC cannot be ordered by enrichment ratio: ≤ 0.25 for the first, ≤ 0.25 for the second.

QDNL and PYNN cannot be ordered by enrichment ratio: ≤ 0.25 for the first, ≤ 0.25 for the second.

DVVC and EPLR cannot be ordered by enrichment ratio: ≤ 0.25 for the first, ≤ 0.25 for the second.

MHDI and VCLH cannot be ordered by enrichment ratio: ≤ 0.25 for the first, ≤ 0.25 for the second.

PMRL and EARP cannot be ordered by enrichment ratio: ≤ 0.25 for the first, ≤ 0.25 for the second.

NMSR and IYQI cannot be ordered by enrichment ratio: ≤ 0.25 for the first, ≤ 0.25 for the second.

FLTH and QERE cannot be ordered by enrichment ratio: ≤ 0.25 for the first, ≤ 0.25 for the second.

FNAA and PESA cannot be ordered by enrichment ratio: ≤ 0.25 for the first, ≤ 0.25 for the second.

EHVR and EKNN cannot be ordered by enrichment ratio: ≤ 0.25 for the first, ≤ 0.25 for the second.

NEWF and DAHK cannot be ordered by enrichment ratio: ≤ 0.25 for the first, ≤ 0.25 for the second.

MFCP and KQMP cannot be ordered by enrichment ratio: ≤ 0.25 for the first, ≤ 0.25 for the second.

Going from ADAM to DSPN, the enrichment ratio falls from 3.24 to ≤ 0.25.

Going from VLTK to FECL, the enrichment ratio rises from ≤ 0.25 to 7.61.

HKWD and FNEG cannot be ordered by enrichment ratio: ≤ 0.25 for the first, ≤ 0.25 for the second.

GTFY and FCFA cannot be ordered by enrichment ratio: ≤ 0.25 for the first, ≤ 0.25 for the second.

RVWD and WCWD cannot be ordered by enrichment ratio: ≤ 0.25 for the first, ≤ 0.25 for the second.

NNTH and SNID cannot be ordered by enrichment ratio: ≤ 0.25 for the first, ≤ 0.25 for the second.

YVWS and CLRM cannot be ordered by enrichment ratio: ≤ 0.25 for the first, ≤ 0.25 for the second.

NNPW and FHLH cannot be ordered by enrichment ratio: ≤ 0.25 for the first, ≤ 0.25 for the second.

WYRP and WEWR cannot be ordered by enrichment ratio: ≤ 0.25 for the first, ≤ 0.25 for the second.

RNSA and NRSM cannot be ordered by enrichment ratio: ≤ 0.25 for the first, ≤ 0.25 for the second.

FMAW and RANS cannot be ordered by enrichment ratio: ≤ 0.25 for the first, ≤ 0.25 for the second.

QHSD and VTNE cannot be ordered by enrichment ratio: ≤ 0.25 for the first, ≤ 0.25 for the second.

Going from IHNQ to FGRA, the enrichment ratio rises from ≤ 0.25 to 0.331.

YDQV and NCHP cannot be ordered by enrichment ratio: ≤ 0.25 for the first, ≤ 0.25 for the second.

MGMD and YQAC cannot be ordered by enrichment ratio: ≤ 0.25 for the first, ≤ 0.25 for the second.

Compared with MAGT, TCMH is higher in enrichment ratio: ≤ 0.25 for the first, 15.1 for the second.

YFTW and EHRE cannot be ordered by enrichment ratio: ≤ 0.25 for the first, ≤ 0.25 for the second.

EAHH and TITD cannot be ordered by enrichment ratio: ≤ 0.25 for the first, ≤ 0.25 for the second.

Compared with PSVA, FMLG is higher in enrichment ratio: ≤ 0.25 for the first, 1.37 for the second.

TCRR and YSDP cannot be ordered by enrichment ratio: ≤ 0.25 for the first, ≤ 0.25 for the second.

Compared with LRSY, QENN is higher in enrichment ratio: ≤ 0.25 for the first, 3.33 for the second.

DNKY and TMNP cannot be ordered by enrichment ratio: ≤ 0.25 for the first, ≤ 0.25 for the second.

Compared with GECV, DFWQ is lower in enrichment ratio: 16.3 for the first, ≤ 0.25 for the second.

GYRC and MYRE cannot be ordered by enrichment ratio: ≤ 0.25 for the first, ≤ 0.25 for the second.

PIIY and GCPR cannot be ordered by enrichment ratio: ≤ 0.25 for the first, ≤ 0.25 for the second.

HPWF was tested, and the enrichment ratio was ≤ 0.25.
